Several values for one entry are separate records, joined by “and”; a condition that tells them apart may be missing. Equal values may be shown once. Out of some 420,000 compounds screened, about 50,000 (12%) were called active. The shares of active, inactive and inconclusive entries below differ from those in the screen. The call rests on the fitted dose curve; in most records, active means well fitted inhibition curve with a large enough effect; inconclusive means small, poorly fitted or top-dose-only effect; inactive means flat fitted curve, though single readings scatter. A potency beside an inconclusive call is a rough fit, not a confirmed value.
Assay: qHTS for Inhibitors of human tyrosyl-DNA phosphodiesterase 1 (TDP1): qHTS in cells in presence of CPT; further: nearly all actives have a fitted effect of over 55% in size
Settings: chicken DT40 Tdp1-/-;hTDP1 cells + 20 nM CPT, ATP luminescence, 48 h; activity change, negative = growth inhibition: at 46.2 µM (top of the series) unless noted
How it was run: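 Cell growth measured by CellTiter-Glo luminescence after a minimum 48 h, 37 C compound exposure with 20 nM CPT in Tdp1-knockout DT40 cells stably expressing hTDP1, seeded 400/well; qHTS titration format.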
On the % scale 0 is the no-effect control and ±100 the full control effect; potency means the concentration at half of the fitted maximal effect; tags describe the fitted curve by direction and shape.

Row | Compound | Potency | activity change, negative = growth inhibition
1 | COc1ccccc1-c1nc2c(c(SCc3cc(C)ccc3C)n1)Cc1c(CO)cnc(C)c1O2 | active: 9.2 µM | 
2 | COc1ccc(CNC(=O)COC(=O)c2c(-c3c(F)cccc3Cl)noc2C)cc1OC | inconclusive: 29.1 µM [inhibitor, single point] | 
3 | COc1ccc(N(CC(=O)N2CCN(c3ccccc3F)CC2)S(=O)(=O)c2c(C)noc2C)cc1 | inactive and inconclusive: 20.6 µM [inhibitor, single point] | 
4 | COc1ccc(-c2ccc(OC)c([C@H]3[C@@H]4C=CCC[C@@]4(C)C(=O)N3Cc3ccccc3)c2)cc1OC | inconclusive: 25.9 µM [inhibitor, single point] | 
5 | Cc1ccc(Cl)cc1NC(=S)NCc1cccn1C | inconclusive: 23.1 µM [inhibitor, partial curve] | 
6 | COc1ccc(-c2csc(N3CCN(c4cc5c(cc4Cl)nc(-c4ccncc4)n5CCOCCO)CC3)n2)cc1 | active: 11.6 µM | 
7 | COC(=O)c1c(NC(=O)C(C)(C)C)sc2c1CCN(Cc1ccccc1)C2 | active: 16.4 µM | 
8 | COc1ccc(OC)c(C(=O)CCCCC(=O)c2cc(OC)ccc2OC)c1 | inconclusive: 29.1 µM [inhibitor, single point] | 
9 | CC(C)[C@@H]1Cc2[nH]c(=O)[nH]c(=O)c2[C@H](C)O1 |  | inactive: 8.1%
10 | Cc1ccc2cc(C)c3nnc(SCC(=O)Nc4nc5c(s4)CCCC5)n3c2c1C | inconclusive: 20.6 µM [inhibitor, single point] | 
11 | COc1ccccc1NC(=O)Cn1cnc2ccc(S(=O)(=O)N3CCC(C)CC3)cc2c1=O | inconclusive: 23.1 µM [inhibitor, partial curve, poor fit] | 
12 | O=S(=O)(NCCOc1ccc(F)cc1)c1ccc2c(c1)OCCO2 | inconclusive: 7.31 µM [inhibitor, full curve] | 
13 | COC(=O)[C@@]12C[C@@H](CC(=O)NCc3ccc(C)o3)C(=O)N(Cc3ccc4c(c3)OCO4)C1=CCC(C)(C)C2 | active: 20.6 µM | 
14 | COc1ccc(NC(=O)c2ccc3ccccc3c2OC)cc1 | inconclusive: 29.1 µM [inhibitor, single point] | 
15 | COCCCN1C(=O)c2[nH]nc(-c3cc(C)ccc3O)c2C1c1ccc(F)cc1 (stereo unspecified) | inconclusive: 18.4 µM [inhibitor, single point] | 
16 | COc1cc(-c2nnc3sc(C4CCCCC4)nn23)cc(OC)c1OC | active: 16.4 µM | 
17 | CC(C)C1CC(CCNCc2ccc(N(C)C)cc2)(c2ccccc2)CCO1 (stereo unspecified) | active: 7.31 µM | 
18 | Cc1nnc(SCC(=O)c2ccccc2F)n1Cc1ccccc1 | inconclusive: 29.1 µM [inhibitor, single point] | 
19 | Cc1nn(-c2ccccc2)c(-n2cccc2)c1C(=O)N1CCN(c2ccccc2)CC1 | inconclusive: 29.1 µM [inhibitor, single point] | 
20 | COc1cc(/C=C2\SC(=Nc3ccc(O)cc3)NC2=O)cc(OC)c1O | active: 20.6 µM | 
21 | O=C(c1ccco1)n1nc(-c2ccco2)nc1SCc1ccccc1 | inconclusive: 23.1 µM [inhibitor, single point] | 

Row | Compound | Potency | activity change, negative = growth inhibition
22 | CN(Cc1ccccc1)c1c([N+](=O)[O-])c(=O)n(C)c2ccccc12 | inconclusive: 29.1 µM [inhibitor, single point] | 
23 | COC/C=C/C1=CC2=CC(=O)C(C)(OC(=O)c3cnc4ccccc4n3)C(=O)C2=CN1C1CC1 (stereo unspecified) | inconclusive: 23.1 µM [inhibitor, single point] | 
24 | COc1cccc(-c2nccc(NCc3ccc(OC)cc3OC)n2)c1 | inconclusive: 23.1 µM [inhibitor, partial curve, poor fit] | 
25 | O=C(Nc1ccccc1-c1nnn(CC(=O)N2CCCc3ccccc32)n1)c1ccco1 | inconclusive: 29.1 µM [inhibitor, partial curve, poor fit] | 
26 | COc1ccc(NC(=O)Cn2c(=O)n(Cc3ccco3)c(=O)c3sc4ccccc4c32)c(OC)c1 |  | inactive: -15.8%
27 | CN(C)c1ccc(O)c2c1C[C@H]1C[C@H]3[C@H](N(C)C)C(=O)C(C(N)=O)=C(O)[C@@]3(O)C(=O)C1=C2O | active: 6.51 µM | 
28 | COc1ccc(C(O)c2nccn2Cc2ccccc2)cc1OC (stereo unspecified) | inconclusive: 29.1 µM [inhibitor, single point] | 
29 | Cc1ccc(NC(=O)CSCC(=O)Nc2cc(Cl)ccc2N2CCN(C)CC2)cc1 | inconclusive: 29.1 µM [inhibitor, single point] | 
30 | O=C1NC[C@H](Cc2ccc(O)cc2)N(CCc2cccc3ccccc23)C1=O | inconclusive: 29.1 µM [inhibitor, single point] | 
31 | Cc1ccccc1NC(=O)Cc1nc(COC(=O)c2cc([N+](=O)[O-])ccc2N)cs1 |  | inactive: -1.69%
32 | CCOC(=O)c1cc(NC(=O)CNCC(c2ccccc2)N(C)C)cc(C(=O)OCC)c1 (stereo unspecified) | inconclusive: 29.1 µM [inhibitor, single point] | 
33 | COc1ccc(CNCCC(c2ccc(C)cc2)c2ccco2)cc1 (stereo unspecified) | active: 11.6 µM | 
34 | COc1ccc(/C=C(\C#N)C(=O)OCC(=O)NCc2ccco2)cc1 |  | inactive: 12.2%
35 | COc1ccc(-n2nc(C(=O)NCC(=O)N3CCN(c4ccccn4)CC3)c3ccccc3c2=O)cc1OC | inconclusive: 18.4 µM [inhibitor, partial curve, poor fit] | 
36 | CCOC(=O)c1nc(Nc2ccc(Nc3ccccc3)cc2)c2ccccc2n1 | active: 13 µM | 
37 | CC1(C(=O)Nc2ccc(F)cc2F)CCN1C(=O)CCC1CCCC1 (stereo unspecified) | inconclusive: 29.1 µM [inhibitor, single point] | 
38 | CC1(C(=O)NS(=O)(=O)c2ccc(F)cc2F)CCN1C(=O)CC(c1ccccc1)c1ccccc1 (stereo unspecified) | inconclusive: 29.1 µM [inhibitor, single point] | 
39 | COc1cccc(CN2CC(C(=O)NCCN3CCOCC3)CCC2=O)c1 (stereo unspecified) |  | inactive: 4.37%
40 | COc1cccc(OC)c1C(=O)Nc1ccccc1N1CCCCC1 | inconclusive: 29.1 µM [inhibitor, single point] | 
41 | Cc1cccn2c(=O)c3cc(C(=O)N4CC(C)CC(C)C4)sc3nc12 (stereo unspecified) | inconclusive: 18.4 µM [inhibitor, single point] | 
